According to PubChem BioAssay (NCATS):
This list was built around the results that the source calls inconclusive (neither active nor inactive); the mix of calls is not that of the screen. For part of these data: A potency beside an inconclusive call is a rough fit, not a confirmed value. Calls of active or inactive are those of the source. Unless noted, the call rests on the fitted dose curve; in most records, active means well fitted curve in the direction sought with a large enough effect; inconclusive means small, poorly fitted or top-dose-only effect, or another doubt; inactive means no such curve, though single readings can be large; an effect the other way counts as inactive or inconclusive. Peptide text beside a SMILES is read from it.

Tests used:
[1] = molecular target: 3',5'-cyclic-AMP phosphodiesterase 4B (Homo sapiens) (UniProt Q07343); assay: qHTS Assay for Inhibitors of PDE-IV (AID 607; active means well fitted activation curve with a large enough effect in the main read-out, with a control signal flat, not every such curve was filed as active; inconclusive means small, poorly fitted or top-dose-only effect, or effect the other way, or a change in a side signal; further: potency means the concentration at half of the fitted maximal effect); settings: HEK293 ACTOne CNG channel cells, membrane potential fluorescence; activation (PDE inhibition): at 22.9 µM (top of the series)
Chain of UniProt Q07343 (Q07343 whole entry, looked up): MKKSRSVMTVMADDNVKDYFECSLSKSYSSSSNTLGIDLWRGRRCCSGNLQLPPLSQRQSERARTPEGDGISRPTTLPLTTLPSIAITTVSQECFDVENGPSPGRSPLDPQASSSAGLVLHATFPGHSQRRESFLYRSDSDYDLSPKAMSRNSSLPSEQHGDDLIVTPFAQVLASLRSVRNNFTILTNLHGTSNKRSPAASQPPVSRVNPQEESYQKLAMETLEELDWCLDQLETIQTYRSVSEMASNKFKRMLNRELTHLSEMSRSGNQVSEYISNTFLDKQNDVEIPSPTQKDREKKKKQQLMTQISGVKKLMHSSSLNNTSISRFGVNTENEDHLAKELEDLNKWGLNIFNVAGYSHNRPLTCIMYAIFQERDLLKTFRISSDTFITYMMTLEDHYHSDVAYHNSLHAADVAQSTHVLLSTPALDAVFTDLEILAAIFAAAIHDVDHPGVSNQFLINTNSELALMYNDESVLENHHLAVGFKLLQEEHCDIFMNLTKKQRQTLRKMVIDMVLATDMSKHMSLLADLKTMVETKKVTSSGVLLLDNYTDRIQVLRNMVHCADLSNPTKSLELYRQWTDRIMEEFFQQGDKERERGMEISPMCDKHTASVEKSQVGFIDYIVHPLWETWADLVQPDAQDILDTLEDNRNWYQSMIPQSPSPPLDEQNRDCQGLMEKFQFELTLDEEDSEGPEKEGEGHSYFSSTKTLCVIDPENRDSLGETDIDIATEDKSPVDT
Procedure, shortened: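 Live HEK293 cells with a modified cyclic nucleotide-gated (CNG) channel report intracellular cAMP via membrane-potential dye fluorescence (ex 535/em 590 nm). Endogenous PDE-IV was targeted. Compounds were tested at up to 22.9 uM final; RO 20-1724 100 uM served as control.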

[2] = qHTS Assay for Identification of Small Molecule Agonists for Hypoxia Response Element Signaling Pathway (AID 914; active means well fitted activation curve with a large enough effect in the signal ratio, with a control signal flat, not every such curve was filed as active; inconclusive means small, poorly fitted or top-dose-only effect, or effect the other way, or a change in a side signal; the % refers to the signal ratio; further: top concentration of the series differs between compounds; % of control where 0% means no effect); settings: ME-180 (cervical carcinoma) HRE-bla reporter, beta-lactamase ratio, CoCl2, 17 h; activation: hits give high values
Procedure, shortened: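 HRE-bla ME-180 assay for agonist-like enhancement of an EC50 CoCl2 stimulus: 17 h at 37 degrees Celsius, CCF4 for 2.5 h, ratiometric 460/530 nm signal converted to %Activity and fitted to AC50.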

[3] = molecular target: Voltage-gated inwardly rectifying potassium channel KCNH2 (Homo sapiens) (UniProt Q12809); assay: qHTS Assay for Small Molecule Inhibitors of the Human hERG Channel Activity (AID 588834);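 further: potency means the concentration at half of the fitted maximal effect; lower thallium flux fluorescence means stronger hERG block; nearly all actives have a fitted effect of over 50% in size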
Chain of UniProt Q12809 (Q12809 whole entry, looked up): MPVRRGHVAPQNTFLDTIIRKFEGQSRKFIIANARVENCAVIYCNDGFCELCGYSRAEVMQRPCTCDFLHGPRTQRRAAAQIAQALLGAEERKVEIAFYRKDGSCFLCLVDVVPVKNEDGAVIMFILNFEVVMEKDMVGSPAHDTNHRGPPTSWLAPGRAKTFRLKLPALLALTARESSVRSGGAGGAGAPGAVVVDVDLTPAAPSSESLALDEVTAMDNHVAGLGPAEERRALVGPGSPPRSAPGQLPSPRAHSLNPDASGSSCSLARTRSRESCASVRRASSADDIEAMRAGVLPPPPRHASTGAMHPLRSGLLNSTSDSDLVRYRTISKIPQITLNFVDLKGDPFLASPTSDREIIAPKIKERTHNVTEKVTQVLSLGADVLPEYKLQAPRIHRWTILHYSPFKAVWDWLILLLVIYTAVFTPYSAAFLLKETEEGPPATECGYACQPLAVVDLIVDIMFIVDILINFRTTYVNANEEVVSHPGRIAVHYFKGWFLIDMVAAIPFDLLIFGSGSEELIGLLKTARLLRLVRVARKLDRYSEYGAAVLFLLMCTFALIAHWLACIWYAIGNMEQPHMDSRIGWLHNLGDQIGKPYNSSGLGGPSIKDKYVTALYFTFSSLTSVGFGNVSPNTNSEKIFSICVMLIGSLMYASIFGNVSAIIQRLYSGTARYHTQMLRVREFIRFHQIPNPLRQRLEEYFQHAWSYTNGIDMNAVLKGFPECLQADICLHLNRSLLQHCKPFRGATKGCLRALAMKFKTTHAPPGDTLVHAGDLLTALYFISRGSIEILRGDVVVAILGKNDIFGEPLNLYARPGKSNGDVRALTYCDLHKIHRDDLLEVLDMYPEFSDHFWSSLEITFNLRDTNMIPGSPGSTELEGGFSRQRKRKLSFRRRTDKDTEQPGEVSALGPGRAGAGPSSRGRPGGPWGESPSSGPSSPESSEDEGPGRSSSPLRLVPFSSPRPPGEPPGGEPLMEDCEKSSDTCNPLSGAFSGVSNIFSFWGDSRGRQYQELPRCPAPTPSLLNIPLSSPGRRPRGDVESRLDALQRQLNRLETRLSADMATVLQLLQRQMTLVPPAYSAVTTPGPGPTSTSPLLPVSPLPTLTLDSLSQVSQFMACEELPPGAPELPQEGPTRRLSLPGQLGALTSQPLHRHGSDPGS
Procedure, shortened: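 Thallium-flux (FluxOR) read-out on FDSS: fluorescence read 10 s before and 2 min after stimulation buffer. hERG-BacMam-transduced U2OS cells, compound exposure about 10 min. AC50 by standard Hill equation.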

[4] = qHTS of pediatric cancer cell lines to identify multiple opportunities for drug repurposing: Primary screen for DAOY cells (AID 1347090);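 further: plate controls were DMSO for no effect and bortezomib for full effect; nearly all actives have a fitted effect of over 55% in size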
Procedure, shortened: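 Viability measured as metabolically active cells via CellTiter-Glo luminescence following 48 hours of compound exposure, 11-point dilutions in confirmatory testing. 500-1,000 cells/well plated 5 hours before dosing; controls were DMSO and 2.3 µM bortezomib.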

[5] = qHTS of pediatric cancer cell lines to identify multiple opportunities for drug repurposing: Primary screen for A673 cells (AID 1347092); settings: A673 Ewing sarcoma viability, CellTiter-Glo ATP luminescence, 48 h; activity change, negative = cytotoxic: at 46 µM (top of the series); further: on the % scale 0 is the no-effect control and ±100 the full control effect; nearly all actives have a fitted effect of over 45% in size
Procedure, shortened: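 48 h compound exposure, A673, 500-1,000 cells/well, 37 degrees C/5% CO2. MIPE: 11-point, 0.78 nM-46 µM; NPC: 8-point, 0.59 nM-46 µM (final). Readout CellTiter-Glo luminescence after 15 min RT.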

[6] = qHTS of pediatric cancer cell lines to identify multiple opportunities for drug repurposing: Primary screen for NB1643 cells (AID 1347099); settings: NB1643 neuroblastoma viability, CellTiter-Glo luminescence, 48 h; activity change, negative = cytotoxic: at 46 µM (top of the series);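 further: plate controls were DMSO neutral control for no effect and bortezomib positive control for full effect; nearly all actives have a fitted effect of over 50% in size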
Procedure, shortened: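 Phenotypic viability qHTS, 48 h compound exposure, CellTiter-Glo luminescence read-out; multi-concentration dosing so that potency and efficacy derive directly from the primary screen's curves.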

[7] = qHTS of pediatric cancer cell lines to identify multiple opportunities for drug repurposing: Primary screen for BT-12 cells (AID 1347101);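 further: plate controls were DMSO for no effect and bortezomib positive control for full effect; nearly all actives have a fitted effect of over 25% in size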
Procedure, shortened: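 Cells (500-1,000/well) rested 5 h, then received compounds for 48 h; metabolically active cells were measured by CellTiter-Glo luminescence. Final concentrations spanned up to 46 µM (MIPE, 11-point) or 0.59 nM-46 µM (NPC, 8-point) in primary screens, 11-point in follow-ups.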

[8] = Primary qHTS for small molecule stabilizers of the endoplasmic reticulum resident proteome: Secreted ER Calcium Modulated Protein (SERCaMP) assay (AID 1508630); settings: SH-SY5Y GLuc-SERCaMP (Gaussia luciferase released on ER calcium loss) secretion, thapsigargin, luminescence; activity change, negative = inhibition: at 38.4 µM (top of the series) unless noted; further: potency means the concentration at half of the fitted maximal effect
Procedure, shortened: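 The SH-SY5Y reporter protocol was run at 3 concentrations up to 38.3 uM (primary) or 11 concentrations (follow-up): 16 h compound, 100 nM thapsigargin for 4 h, then extracellular luciferase luminescence.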

SKOV3 = assay: Primary qHTS to identify gynecologic anti-cancer compounds using libraries of approved drugs and bioactive compounds (AID 1345084); settings: Gynecologic cancer cell panel viability, ATPlite luminescence, 48 h; series mostly up to 57.5 µM; further: potency means the concentration at half of the fitted maximal effect; nearly all actives have a fitted effect of over 55% in size
Procedure, shortened: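 Luminescence from the ATPlite ATP-monitoring reagent indicates viable cell number; lower signal means cytotoxicity. Cells received compound 16 h after seeding and were exposed for 48 h across five concentrations.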

[9] = Drug repurposing screens with cells derived from glioblastoma tumor samples (AID 1345199); settings: GBM patient neurospheres viability, ATP luminescence, 48 h; Potency: tumour line A unless noted; activity, negative = cell killing: at 46 µM (top of the series), tumour line A unless noted; further: on the % scale 0 is the no-effect control and ±100 the full control effect; nearly all actives have a fitted effect of over 40% in size
Procedure, shortened: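 Primary testing used CD133+ neurospheres from four GBM patients, seven concentrations, 48 h exposure and ATP-based viability; confirmation added three slower-growing patient lines.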

CP262 = assay: qHTS profiling for inhibitors of Plasmodium falciparum proliferation (AID 504749); further: nearly all actives have a fitted effect of over 60% in size; further: potency means the concentration at half of the fitted maximal effect;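 on activity, negative = inhibition: 0% = DMSO vehicle and full inhibition = artemisinin control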; settings: P. falciparum in erythrocytes, SYBR Green DNA, 72 h; series mostly up to 28.7 µM
Procedure, shortened: (§1)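 SYBR Green fluorescence (ex 485 nm, em 535 nm) reports parasite DNA after 72 h compound exposure of infected red cells at 0.3% parasitemia, 2.5% hematocrit; signal normalized to 0.29 uM artemisinin and vehicle wells.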

CP265 = assay: as above; settings: P. falciparum in erythrocytes, SYBR Green DNA, 72 h; series mostly up to 28.7 µM
Procedure, shortened: as §1

DIV17 = assay: as above; settings: P. falciparum in erythrocytes, SYBR Green DNA, 72 h; activity, negative = inhibition: at 28.7 µM (top of the series)
Procedure, shortened: as §1

N140 = assay: as above; settings: P. falciparum in erythrocytes, SYBR Green DNA, 72 h; series mostly up to 28.7 µM
Procedure, shortened: as §1

P93_24 = assay: as above; settings: P. falciparum in erythrocytes, SYBR Green DNA, 72 h; series mostly up to 28.7 µM
Procedure, shortened: as §1

P94_40 = assay: as above; settings: P. falciparum in erythrocytes, SYBR Green DNA, 72 h; series mostly up to 28.7 µM
Procedure, shortened: as §1

[10] = P-glycoprotein substrates identified in KB-3-1 adenocarcinoma cell line, qHTS therapeutic library screen (AID 1346986); further: nearly all actives have a fitted effect of over 60% in size
Procedure, shortened: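 Viability by CellTiter-Glo after 72 h compound exposure at 37 degree C, 5% CO2. Cytotoxic call: curve class -1.1 to -2.4, maximum response >50%, AC50 < 10 uM, compared across KB-3-1 and P-gp-overexpressing KB-8-5-11.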

[11] = molecular target: Cytochrome P450 2D6 (Homo sapiens) (UniProt P10635); assay: Cytochrome P450 family 2 subfamily D member 6 (CYP2D6) small molecule antagonists: luciferase biochemical (cell-free) qHTS assay (AID 1645840; active means well fitted curve in the direction sought with a large enough effect in the repeat runs; inconclusive means weak or mixed curves; inactive means no such curve, though single readings can be large; an effect the other way counts as inactive or inconclusive; further: on the % scale 0 is the no-effect control and ±100 the full control effect; nearly all actives have a fitted effect of over 55% in size)
Chain of UniProt P10635 (P10635 whole entry, looked up): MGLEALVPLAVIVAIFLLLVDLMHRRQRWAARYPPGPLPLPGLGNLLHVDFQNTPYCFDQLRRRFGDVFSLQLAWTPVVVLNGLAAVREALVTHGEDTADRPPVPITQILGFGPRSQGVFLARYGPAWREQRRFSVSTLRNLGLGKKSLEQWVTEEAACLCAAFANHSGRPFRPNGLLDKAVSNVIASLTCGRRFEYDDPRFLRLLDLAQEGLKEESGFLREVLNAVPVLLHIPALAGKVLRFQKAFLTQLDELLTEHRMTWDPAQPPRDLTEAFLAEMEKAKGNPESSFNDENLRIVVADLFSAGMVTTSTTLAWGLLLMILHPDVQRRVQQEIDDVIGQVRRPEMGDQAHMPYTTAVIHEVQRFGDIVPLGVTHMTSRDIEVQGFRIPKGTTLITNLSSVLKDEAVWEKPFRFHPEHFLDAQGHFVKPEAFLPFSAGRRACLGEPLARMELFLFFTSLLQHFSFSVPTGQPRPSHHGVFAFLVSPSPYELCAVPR
Procedure, shortened: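 P450-Glo CYP2D6 system: proluciferin substrate converted by enzyme to luciferin, read by luminescence proportional to activity. Enzyme-substrate mix with compound 10 min at room temperature, then NADPH regeneration 1 h before detection reagent.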

[12] = Primary qHTS for inhibitors of nuclear receptor binding SET domain protein 2 (NSD2) in an isogenic RCH-ACV NSD2 p.E1099K mutant (9B) (AID 1645876); settings: activity change, negative = viability loss: at 44.9 µM (top of the series) unless noted; further: on the % scale 0 is the no-effect control and ±100 the full control effect; nearly all actives have a fitted effect of over 70% in size
[13] = Primary qHTS for inhibitors of nuclear receptor binding SET domain protein 2 (NSD2) in an RCH-ACV wild type WT cells (2C) (AID 1645877); settings: activity change, negative = cell killing: at 44.9 µM (top of the series) unless noted; further: nearly all actives have a fitted effect of over 70% in size
[14] = Primary redox qHTS assay for identification of artifact compounds. (AID 1845223); further: potency means the concentration at half of the fitted maximal effect
Procedure, shortened: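 Redox-cycling detection via DTT (250 uM final) oxidation coupled to Amplex Red (25 uM)/HRP (250 mU/mL) in HBSS. 15 min preincubation plus 30 min after DTT, room temperature. Ex/Em 525/598 nm; 4-parameter Hill fit against DMSO and 10 uM DA3003.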

[15] = P-glycoprotein substrates identified in KB-8-5-11 adenocarcinoma cell line, qHTS therapeutic library screen (AID 1346987); settings: activity change, negative = cytotoxicity: at 44.5 µM (top of the series); further: nearly all actives have a fitted effect of over 65% in size
Procedure, shortened: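 In this qHTS, P-gp-rich KB-8-5-11 cells received library compounds across a concentration range. Viability was quantified by luminescence after 72 h at 37 degree C.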
Tags describe the fitted curve by direction and shape.

O=C(O)COC(=O)Cc1ccccc1Nc1c(Cl)cccc1Cl
inactive: activation [2] -4.27% | Potency [4] | Potency [5] | Potency [6] | Potency [7] | Potency [9] | Potency (CP262) | Potency (CP265) | Potency (DIV17) | Potency (N140) | Potency (P94_40)
inconclusive: Potency [1] 9.51 µM [rising, partial curve, poor fit] | Potency [3] 7.94 µM [inhibitor, single point] | Potency [8] 31.6 µM [inhibitor, partial curve, poor fit] | Potency (SKOV3) 7.08 µM [rising, single point] | Potency (P93_24) 1.12 µM [inhibitor, single point]

CCOc1ncc(S(=O)(=O)N2CCN(CC)CC2)cc1-c1nc2c(CC)n(CCOC)nc2c(=O)[nH]1
inactive: Potency [10] | Potency [11] | Potency [12] | Potency [13]
inconclusive: Potency [14] 7.52 µM [activator, partial curve, poor fit] | Potency (SKOV3) 11.2 µM [rising, partial curve, poor fit]

C[C@@H](O)[C@H](N)C(=O)N1CCC[C@H]1C(=O)N1CCC[C@H]1C(=O)N[C@H](C(N)=O)[C@@H](C)O (H-TPPT-NH2)
inconclusive: Potency (SKOV3) 0.891 µM [rising, single point]
inactive: outcome [15] inactive [at 9.29 µM]
